# Publication PMC12136788
# Some of the results follow.
# B1: chr7:44244176:44244177:+_ENSG00000106636_ENST00000223369|hu_mus|hu_hu_hu_mus_False|18_78 (ssRNA)
# RNA: GGGAGUUCUACAGUCCGACGAUCACUGUCGCUCCGGACGUAGACAUGGCAAAGAUAGUCUUGUUCUUUGACAGAAGCUCUGCUGCCUUUCCCCGAGCGUUCCACAAUCAGUUGACUCGUGAAGGUCAUGAAUUCCUGCACACUCAACAGAGGAUUGAGCAUCA
# B2: chr16:29649037:29649038:+_ENSMUSG00000038084_ENSMUST00000160597|mus_hu|motif|central (ssRNA)
# RNA: GGGAGUUCUACAGUCCGACGAUCUUUAAUUUAUUUCUCCUGAUGAAGAGCUUCAAUGAAAGCAUCAAGUUUUUCUUGAAUUUCUCGGACUUUCUUGAGGUCUUCCGCCAGUUGAACGCGUUUACCAGUAAGCAAUUUAAUCUUCAACAGAGGAUUGAGCAUCA
# B3: chr3:196311055:196311056:+_ENSG00000174013_ENST00000440469|hu_mus|FALSE|FALSE (ssRNA)
# RNA: GGGAGUUCUACAGUCCGACGAUCGGCUUUUGGAAGUCCUCGAAAGGCAACCCCCAGGAACUCAUACCCACGCUCAAAAGCUAAAGUCUUAUCCUCCAUGUCCAGGAUGACUCGGAUUCUCUCUCCUAUCUGAUACUUUGGUGCCAACAGAGGAUUGAGCAUCA
# B4: chr5:37680062:37680063:+_ENSMUSG00000029121_ENSMUST00000031004|mus_hu|mus_mus_mus_hu_False|1_1 (ssRNA)
# RNA: GGGAGUUCUACAGUCCGACGAUCUUUGGGUGUAGCUGGUACCUCGUACACAGGACCGUCAUACAUGCCCCUGGAAACCCCUUGCAAUCCAAAAACCUUAUUCCUGAUUUUGACGCGCUGGUACAGGUGCUCCGGGAAUGGCUUCAACAGAGGAUUGAGCAUCA
# B5: chr7:150915252:150915253:-_ENSG00000033050_ENST00000287844|hu_hu|FALSE|FALSE (ssRNA)
# RNA: GGGAGUUCUACAGUCCGACGAUCCUUCCCUGCUCCAUUGGGCCCUACCAGAGCCACUCGUGUGUCAAGGUCAAUUCCAAAUUCUAGAUUAUUGUAGAUGCAAGGCCCAUCUUUUGUAUACUUGAAGCUCACAUUUUGCACCAUCAACAGAGGAUUGAGCAUCA
# B6: chr14:102036314:102036315:-_ENSMUSG00000075486_ENSMUST00000100339|mus_mus|motif|central (ssRNA)
# RNA: GGGAGUUCUACAGUCCGACGAUCCUUGAGAGAUCUGCAGCUGUCAGAGCUCACAGCCAUGCCCAGUUUCCACUGAAAAUCGGUAAGCUGGCCCGUGACCUCCGACUUGGCAUCCAGCACGGGCUCCCUGAACCCAGACUCCUCCAACAGAGGAUUGAGCAUCA
# B7: chr1:182620099:182620100:+_ENSMUSG00000058729_ENSMUST00000085803|mus_mus|FALSE|FALSE (ssRNA)
# RNA: GGGAGUUCUACAGUCCGACGAUCAACAACAAAGCUUUUAUAAAUUAUGAUAAAUUAAAAUAUUUAUUAUUAUAAUUGAUCUAUAGAACCAUGUCCCACUGUCAGUAUAUGAAACAUACACUUAAGUCCGUGUUUCCCAUCUGUCAACAGAGGAUUGAGCAUCA
# B8: chr7:54825262:54825263:-_ENSG00000132432_ENST00000352861|hu_hu|hu_hu_hu_mus_False|1_68 (ssRNA)
# RNA: GGGAGUUCUACAGUCCGACGAUCCUGCCGGCUGGGCUCCACAAACUGCAUUACCUGAUCCAUGUUUUACCCAACCGGGAUUGAGAGCGUAGAGACACGUAGCUCAGGAGAGAACCGAGCCCAACGGAACCGGAAGCGGAAUCCCAACAGAGGAUUGAGCAUCA
# B9: chr1:63797873:63797874:+_ENSMUSG00000025962_ENSMUST00000128621|mus_mus|FALSE|FALSE (ssRNA)
# RNA: GGGAGUUCUACAGUCCGACGAUCAUCCUCUGGGGUGGCAUGAAUUUAAACAGUAAACAGACUUAGGAACACACAGCACUGCUACUCUCUGCAUGUUUGUGGCAGAACUUGCAUCUACAUCAGAAAAUGAAAAUACUUGGGUCCCAACAGAGGAUUGAGCAUCA
# B10: chr8:24049560:24049561:+_ENSMUSG00000031540_ENSMUST00000044331|mus_mus|motif|central (ssRNA)
# RNA: GGGAGUUCUACAGUCCGACGAUCGCUGUUGACAGAGCGGACUGACUGGCUAGGAUGAGACGGAAUGGAGGAUAUCGGGCGGUUAUGCUCUGAAGCAUGACAGUCUUCAACCAUUGACAUCUGGGGGUCCUCAUCAGUGUGGGUCAACAGAGGAUUGAGCAUCA
# B11: chr17:64801638:64801639:+_ENSG00000154229_ENST00000413366|hu_mus|hu_hu_hu_mus_False|1_28 (ssRNA)
# RNA: GGGAGUUCUACAGUCCGACGAUCUAUAUAUAUAUAUACAUAUGUACACAUAUAUAGUAAAACCCUAGUUAAACGUGUAAAGUAGCCAUUCAUUUUUAAAAUUACAUCUACAUUUAAAAAUUAAUAUAUCUGAUAGAGUGCCCACAACAGAGGAUUGAGCAUCA
# B12: chr12:36742118:36742119:-_ENSMUSG00000020577_ENSMUST00000020896|mus_hu|FALSE|FALSE (ssRNA)
# RNA: GGGAGUUCUACAGUCCGACGAUCAGGUGCCACCGAGCUUCAGAGACCACAAGUUUCAAAUAUUUUUCAGCAACGGAAAGAAAAAAACAUGUAGAGAAACAUAGAGUAAAAAUAUAUAAUUCCACUAUCAAUAAGGUACUUUUCCAACAGAGGAUUGAGCAUCA
# B13: chr15:35867035:35867036:-_ENSMUSG00000014313_ENSMUST00000014457|mus_mus|motif|central (ssRNA)
# RNA: GGGAGUUCUACAGUCCGACGAUCAGAAGACCACGCAUCUGUGGUUUGGGCAACAGCGCACCGGAACUCAUGGUAGCCAAUGUCCUCGGCACCAACGUCCUUCCCGGUUCUCGGAGAAACGGAGAGCCUUCCAGCAGCACGCAUCAACAGAGGAUUGAGCAUCA
# B14: chr6:41757443:41757444:+_ENSG00000214736_ENST00000398881|hu_mus|hu_hu_hu_mus_False|8_68 (ssRNA)
# RNA: GGGAGUUCUACAGUCCGACGAUCGAACCGUGCAGAGGCAACAUCUCAGCCGACACUGGGGGAUGGGGGAACAAAAGGGGGGGGUUCAGGCAAGGAGAGGGAGUCAACUUCAGCUGCCACUCAGGUAGCUGCCAUCAGUCACAGCAACAGAGGAUUGAGCAUCA
# B15: chr16:13835293:13835294:+_ENSMUSG00000022681_ENSMUST00000136618|mus_mus|FALSE|FALSE (ssRNA)
# RNA: GGGAGUUCUACAGUCCGACGAUCAGGAAAGAGUAUAUUCUCUGGAGAUGGGAAUUUUUUUAAAAACAUCAAGGUAGAUCUAAUAUGUUCAACAAAGUGGGGGGGCUCGGCCAGAGGAGACGUGGAAAGGCUCUCUAGGAUUUGCAACAGAGGAUUGAGCAUCA
# B16: 142103422_142116185_2502_3pUTR_ENSG00000114127_ENST00000264951|human|control|control (ssRNA)
# RNA: GGGAGUUCUACAGUCCGACGAUCCGAACUUCACCAUUUUGAUUUAUUUGAUAUUUACGACCUGUGAGUAACUGAGCAUACACAACUGCAGAUGUUUCAUUUAUUAUUAUUCCUUUUCUUCUCAGGUAGUGUUCUGAAAUUCCUCAACAGAGGAUUGAGCAUCA
# B17: chr17:65740002:65740003:+_ENSG00000130935_ENST00000581375|hu_hu|hu_hu_hu_mus_False|1_28 (ssRNA)
# RNA: GGGAGUUCUACAGUCCGACGAUCAACAAAUCUUUCUUCCCUGGACGAACAGGAAGAUUCAUAUUAAAAAAAAUAUAUAUCCAUCAAGUUAGGUGUGGUGGCCACACAGAGCUCCAGAGCACUUUGGGAGGUGGAUCCUCUAUUCAACAGAGGAUUGAGCAUCA
# B18: chr5:128448638:128448639:+_ENSG00000066583_ENST00000173527|hu_mus|hu_hu_hu_mus_False|8_68 (ssRNA)
# RNA: GGGAGUUCUACAGUCCGACGAUCGGCACUCGCCUUAAUUAGGUUCUGAAUUUCCUUGAACUUCGGGUGGUCCUUAUCAGCCACCAGCUGUAGGAGGACAGCCUCACUAGUGGUCACGAUGAUCCCAGUUCGAGCGAGACGCUCCAACAGAGGAUUGAGCAUCA
# B19: chr14:103803487:103803488:+_ENSG00000100664_ENST00000558506|hu_mus|hu_hu_hu_mus_True|28_78 (ssRNA)
# RNA: GGGAGUUCUACAGUCCGACGAUCGAGUUUAUGAUGUGUGUCAAGCAUGCCUCGGUAGCCACAGGCUUUACAAGAAUUACCUAUUGUUUGCUUCUUUGGAUUGACAUGCAAAUCUGUUUCAGGAUUCUCACACUCAGGACAGAGCAACAGAGGAUUGAGCAUCA
# B20: 59406787_59410403_2143_CDS_ENSG00000166889_ENST00000300146|human|control|control (ssRNA)
# RNA: GGGAGUUCUACAGUCCGACGAUCUGUAGCAGGGUCUGAACUCUGUAGGUCUUCACCACGGCUCAGGAGGAUGAGGAGCAGUGACAGGCCAAACUUGUUCUGGAGCACAGCAGUGAGGUGAGGAUUGGAGAGUGCUGGUGUAGCCAACAGAGGAUUGAGCAUCA
# B21: chr8:34730120:34730121:+_ENSMUSG00000009630_ENSMUST00000009774|mus_mus|FALSE|FALSE (ssRNA)
# RNA: GGGAGUUCUACAGUCCGACGAUCACAGUAAUUUAGUUUAGGAAACUUUAAAGGAAAUCUCUUUAAUGUUAUGACAACAUACUCCCAAGAAUCUCUUCUUCAGUUAGUCAUACAUUUCAAUAAAAUAAAGGAUUAUGAAUUGAACAACAGAGGAUUGAGCAUCA
# B22: chr2:155973683:155973684:-_ENSMUSG00000027620_ENSMUST00000109587|mus_hu|FALSE|FALSE (ssRNA)
# RNA: GGGAGUUCUACAGUCCGACGAUCCAUGAACAUUUUAAAAGGCAGAACAAGAGAACAGUUUUGUAUACAGUGGGAUUUACUAUUUAGGGAGAAUGAGCACACUGCAUUCCUGUUAACAUUUUUAUUUUUUCAAGGUAACAGGAACAACAGAGGAUUGAGCAUCA
# Molecular target: T1, UNK ZnF1-3 (human, UniProt Q9C0B0 31-174)
# T1 sequence: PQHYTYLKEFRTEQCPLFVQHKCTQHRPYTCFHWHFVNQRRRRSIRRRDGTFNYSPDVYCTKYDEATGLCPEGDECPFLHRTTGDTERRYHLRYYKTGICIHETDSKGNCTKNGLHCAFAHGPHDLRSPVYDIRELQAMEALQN
# Experiment: nsRBNS (natural sequence RNA bind-n-seq); RBNS binding buffer (assumed for nsRBNS): 25 mM Tris pH 7.5, 150 mM KCl, 3 mM MgCl2, 0.01% Triton X-100, 500 ug/ml BSA, 20 U/ml SUPERase-In, 4 C; UNK is unkempt and MSI1 is Musashi-1; names of the RNAs are library labels; protein concentration not given here; high values mean tight binding
row,Binder,binding signal [enrichment R]
1,B1,0.716
2,B2,0.671
3,B3,0.98
4,B4,0.731
5,B5,1.07
6,B6,0.489
7,B7,0.913
8,B8,0.504
9,B9,1.27
10,B10,1.13
11,B11,1.65
12,B12,1.98
13,B13,0.913
14,B14,2.9
15,B15,2.27
16,B16,1.25
17,B17,1.93
18,B18,0.631
19,B19,1.17
20,B20,1.49
21,B21,0.783
22,B22,1.22
